The results in this text go back to the supplement of paper PMC11369174, “Proteome-scale characterisation of motif-based interactome rewiring by disease mutations” (Molecular Systems Biology, 2024).

The other results are listed elsewhere or left out. This is a noisy data set.

What all share (test): mutation enrichment score (mutant vs wild-type peptide binding to bait); baits are purified protein domains named by gene / domain / UniProt id / residues; peptides come from disordered regions of human proteins; higher = mutation enhances binding relative to wild type
Assay [1] has as its target ABL1_SH3__P00519_60_121. The note with it: wild-type window: ….
Assay [2] concerns the target ALYREF_RRM__Q86V81_78_183. The note with it: number of wild-type / mutant comparisons summed (bounds the score): 6; paper call: no_effect; wild-type window: ….
The target of assay [3] is T1, AHNAK2_PDZ__Q8IVF2_108_193.
T1 chain: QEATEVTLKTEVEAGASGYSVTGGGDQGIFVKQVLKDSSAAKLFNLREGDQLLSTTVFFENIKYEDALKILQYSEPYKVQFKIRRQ
The note with it: wild-type window: ….

For assay [4], the target named is USP7_MATH-TRAF__Q93009_53_206. Particulars: number of wild-type / mutant comparisons summed (bounds the score): 5; paper call: no_effect; wild-type window: ….
Sequence of USP7_MATH-TRAF__Q93009_53_206 (chain, as listed by the source): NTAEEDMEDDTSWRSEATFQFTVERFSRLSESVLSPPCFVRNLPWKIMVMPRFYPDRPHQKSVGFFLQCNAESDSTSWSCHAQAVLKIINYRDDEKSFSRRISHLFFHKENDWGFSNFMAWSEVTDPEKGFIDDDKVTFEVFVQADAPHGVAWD
For assay [5], the target named is Intersectin-1_SH3_2_Q15811_913_971. Particulars: paper call: no_effect, wild-type window: ….
In assay [6] the target is NCK1_SH3_1_P16333_5_60. The note with it: wild-type window: ….
Assay [7] has as its target Src_SH3__P12931_87_144. The note with it: paper call: no_effect, wild-type window: ….
In assay [8] the target is EPS8_SH3_1_Q12929_534_598 (clone: EPS8L1_SH3_1_Q12929_534_598). The note with it: paper call: no_effect, wild-type window: ….
In assay [9] the target is DMD_WW-EF__P11532_3055_3088. The note with it: number of wild-type / mutant comparisons summed (bounds the score): 6; paper call: no_effect; wild-type window: ….
Assay [10] deals with NEDD4_WW_2_P46934_765_803. The note with it: number of wild-type / mutant comparisons summed (bounds the score): 12; paper call: enhanced; wild-type window: ….
Sequence of NEDD4_WW_2_P46934_765_803 (chain, as listed by the source): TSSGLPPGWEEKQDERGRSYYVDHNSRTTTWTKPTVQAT
Assay [11] addresses WWTR1_WW__Q9GZV5_122_160. The note with it: number of wild-type / mutant comparisons summed (bounds the score): 12; paper call: enhanced; wild-type window: ….
For assay [12], the target named is T2, G3BP2_NTF2_1_Q9UN86_1_139.
T2 chain: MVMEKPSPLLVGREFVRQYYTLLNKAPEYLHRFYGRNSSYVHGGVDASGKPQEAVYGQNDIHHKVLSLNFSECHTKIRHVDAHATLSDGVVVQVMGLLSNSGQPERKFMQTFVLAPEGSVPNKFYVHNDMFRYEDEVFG
Particulars: number of wild-type / mutant comparisons summed (bounds the score): 6; paper call: no_effect; wild-type window: ….

Setting [13] is: number of wild-type / mutant comparisons summed (bounds the score): 12, paper call: diminished.
The mark [14] stands for this setting: number of wild-type / mutant comparisons summed (bounds the score): 6, paper call: no_effect.
Setting [15] is: number of wild-type / mutant comparisons summed (bounds the score): 6.
Where [16] appears, read: number of wild-type / mutant comparisons summed (bounds the score): 12, paper call: no_effect.
The mark [17] stands for this setting: number of wild-type / mutant comparisons summed (bounds the score): 12.
Where [18] appears, read: number of wild-type / mutant comparisons summed (bounds the score): 12, paper call: enhanced.

Sequence of ABL1_SH3__P00519_60_121 (chain, as listed by the source): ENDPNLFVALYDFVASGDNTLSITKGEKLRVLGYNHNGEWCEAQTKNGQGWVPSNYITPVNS
Sequence of WWTR1_WW__Q9GZV5_122_160 (chain, as listed by the source): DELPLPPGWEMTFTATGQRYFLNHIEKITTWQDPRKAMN

For SRPAAPSAHPPAHPPPSAAASAPAPSGQPGLMAQMATTAAG [P34S P34S], the mutation enrichment score in assay [1] (setting [13]) was -7.6.

With VETLQTLQKKEIEDLYSRLGEQPPPGIVAPAAMLSSRQRRL [K1169E K1169E], the mutation enrichment score in assay [2] stood at 4.

As to SDDVSEVDARHIIENAKQDVNDEYGVSQALARGLQSYYAVA [D715N D715N], in assay [2], the mutation enrichment score was -4.7.

With GWPGAVAHACNPSTLGGQGGWITRSGVRDQPDQHGLLWNLS [R490W R490W], the mutation enrichment score in assay [3] (number of wild-type / mutant comparisons summed (bounds the score): 18, paper call: enhanced) amounted to 11.

For YSNLANCSPNRQKPVVDHSVWINSVGSTASSSQPLLVHDDV [R956W R956W], the values for the mutation enrichment score in assay [3] (setting [14]) and in assay [4] were 2 and 2.6, respectively.

As to MMQALLGARAKESLDLRAHLNQVKKEDTEKENREVGDWRKN [K174N K174N], the mutation enrichment score in [2] turned out to be 3.

With RALKQQKKAQIRANGFKLETAPPMGVPPPPPPAPDYVLPPS [G123A G123A], the figures for the mutation enrichment score in assay [1] (setting [13]) and in assay [5] (setting [15]) were -10 and -4, respectively.

Take RALKQQKKAQIRANGFKLETEPPMGVPPPPPPAPDYVLPPS [G123E G123E]: the mutation enrichment score in assay [1] (setting [16]) is -0.87; in assay [5] (setting [15]), 2.8; in [6] (setting [14]) it was 0; in assay [7] (setting [15]), 0.

As for AQIRANGFKLETGPPMGVPPLPPPAPDYVLPPSLHGPEPKG [P131L P131L], the mutation enrichment score in assay [1] (number of wild-type / mutant comparisons summed (bounds the score): 18, paper call: diminished) was -9.9; in assay [8] (setting [17]), 1.3; in [5] (setting [17]), -2.8; in assay [6] (setting [13]), -11; in assay [7] (setting [17]), -4.

In the case of PAPPPQPPESPPPPPLPPQQHQPAQPGPAASPAGPPAPRGP [Q41H Q41H], the mutation enrichment score in assay [1] (setting [16]) is 3; in assay [7] (setting [15]), -2.7.

With MLYLEDYLEMIEQLPMDLRDGFTEMREMDLQVQNAMDQLE [D20G D20G], the mutation enrichment score in assay [2] was -4.

As to KDRTKGPAEAELPEDPSMMGWLGKVEKQVLSMEKKLDFLVN [R622W R622W], the mutation enrichment score in assay [2] was -3.

Regarding RREEARNPKRKPRLMEEDELSSWIIKDDAEVERLTCEEEEE [P1344S P1344S], in assay [3] (setting [14]), the mutation enrichment score amounted to 2.

LAPSSCMLAAFKPEAYAGPEVAAPGLPELRAELGRAPSPAK [A61V A61V]: the mutation enrichment score in assay [1] (setting [18]) worked out at 7.

In the case of KKAQIRANGFKLETGPPMGVLPPPPPAPDYVLPPSLHGPEP [P129L P129L], the mutation enrichment score in assay [1] (number of wild-type / mutant comparisons summed (bounds the score): 18, paper call: no_effect) is -7.1; in assay [8] (setting [15]), 2.6; in assay [5] (setting [17]) it was -5; in [6] (setting [16]) it was 2.4; in assay [7] (setting [17]), 2.8.

Consider VNENFAIDLIAEQPVSEVETWVIACDGGGGALGHPKVYINL [R83W R83W], for which the mutation enrichment score in assay [3] (setting [18]) turned out to be 11.

For the molecule SPPEEPPDFCCPKCQYQAPDVDTLQIHVMECIE [M407V M407V], the mutation enrichment score in assay [1] (setting [14]) stood at 1.4.

In the case of STSSSLAYPPPPSYPSPKPAMDPGLFPMIPDYPGFFPSQCQ [T215M T215M], the mutation enrichment score in assay [1] (setting [14]) turned out to be 4.3; in [9], 1.7; in [8] (setting [15]), 4.5; in assay [10] it was 7.3; in assay [11], 7.9.

Take RAVSADPLPPPPLPLQPPFGLDFYSSDTEEPAIAPDLKPVR [P59L P59L]: the mutation enrichment score in assay [1] (setting [16]) is 2.9; in assay [12], 3; in [6] (setting [14]), 3.8; in assay [7] (setting [15]) it was 3.9.
